Experimental data as given in PubChem BioAssay AID1745853 (National Center for Advancing Translational Sciences (NCATS), 2022).
Some of the results follow. Further columns of the screen follow, without active or inactive calls.

What was measured:
Assay in all cases: Primary Screen for Target Class Profiling of Small Molecule Inhibitors of Methyltransferases
[1] = molecular target: Glycine N-methyltransferase (Homo sapiens) (UniProt Q14749); conditions: purified enzyme, MTase-Glo SAH luminescence; measured here: GNMT inhibition; at 40 µM; stronger effect = lower value
Outline: (§1)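 Each enzyme was reacted with SAM and its substrate, with compounds tested once at 40 uM; SAH formed was read by MTase-Glo luminescence.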

[2] = molecular target: Guanidinoacetate N-methyltransferase (Homo sapiens) (UniProt Q14353); conditions: purified enzyme, MTase-Glo SAH luminescence; measured here: GAMT inhibition; at 40 µM; stronger effect = lower value
Outline: as §1

[3] = molecular target: Histamine N-methyltransferase (Homo sapiens) (UniProt P50135); conditions: purified enzyme, MTase-Glo SAH luminescence; measured here: HNMT inhibition; at 40 µM; stronger effect = lower value
Outline: as §1

[4] = molecular target: Nicotinamide N-methyltransferase (Homo sapiens) (UniProt P40261); conditions: purified enzyme, MTase-Glo SAH luminescence; measured here: NNMT inhibition; at 40 µM; stronger effect = lower value
Outline: as §1

[5] = molecular target: Phenylethanolamine N-methyltransferase (Homo sapiens) (UniProt P11086); conditions: purified enzyme, MTase-Glo SAH luminescence; measured here: PNMT inhibition; at 40 µM; stronger effect = lower value
Outline: as §1
% is scaled to controls: 0 for no effect and ±100 for the full control effect.

Row | Structure (SMILES) | activity change, negative = inhibition [1] [%] | activity change, negative = inhibition [2] [%] | activity change, negative = inhibition [3] [%] | activity change, negative = inhibition [4] [%] | activity change, negative = inhibition [5] [%]
1 | COc1ccc(Cl)cc1N1C(=O)c2cc3sccc3n2CC1(C)C(=O)NC1CCCCCC1 (configuration not stated) | 1.17 | 0 | 6.25 | 6.74 | -0.348
2 | CC(C)n1c(=O)c2ccc(C(=O)NC3CCCC3)cc2n2c(=O)n(CC(=O)NC3CCCCC3)nc12 | 6.05 | 2.08 | -0.481 | -10.1 | -6.33
3 | CCOc1ccc(CN2C(=O)c3cc4sc(CC)cc4n3CC2(C)C(=O)NC2CCCCC2)cc1 (configuration not stated) | 3.75 | 2.41 | 8.16 | 9.04 | 2.82
4 | Cc1ccccc1NC(=O)N1Cc2c(sc3c2CCCC3)-n2cccc2C1c1ccccc1 (configuration not stated) | -2.52 | 0 | 4.35 | 1.48 | 4.24
5 | COc1ccc(-c2ccccc2)cc1NS(=O)(=O)c1cc(Cl)cc(Cl)c1O | -14.7 | -7.18 | 1.14 | -31.3 | 0.37
6 | COc1ccc(S(=O)(=O)N2CCCCC2c2nc(C3CC3)n[nH]2)cc1 (configuration not stated) | 7.91 | 0.766 | 2.52 | 1.55 | 3.65
7 | CO[C@]1(NC(=O)CSC(F)F)C(=O)N2C(C(=O)O)=C(CSc3nnnn3CCO)CO[C@H]21 | -2.79 | -4.55 | 10.7 | -11 | 2.67
8 | COc1cc(NC(=O)O[C@@H]2CC[C@]3(C)C(CC[C@@H](O)[C@H]3CC(=O)N3CC[C@H](NC(C)=O)C3)[C@]2(C)CO)cc(OC)c1 (some centres not stated) | -3.67 | 0.219 | 1.6 | -5.47 | 1.63
9 | Cc1cc(C)cc(NC(=O)CCc2nnc3n(Cc4ccccc4)c(=O)c4ccccc4n23)c1 | -6.82 | 4.59 | 1.37 | 5.43 | -3.24
10 | O=C(NCc1ccc(F)cc1)c1ccc2c(=O)nc3c(-c4ccc(F)cc4)n[nH]n3c2c1 | -12.9 | 0.753 | -6.6 | -3.72 | -4.58
11 | Cc1cc(Cl)ccc1COc1ccnn1-c1cc(C(=O)O)ccn1 | -10.7 | -0.398 | -7.88 | -18 | -10.6
12 | CCCn1c(=O)c2ccc(C(=O)NC3CCCC3)cc2n2c(SCC(=O)NCc3ccccc3)nnc12 | -0.468 | 4.38 | 2.53 | -2.97 | 4.24
13 | OCC(CO[C@@H]1O[C@H](CO)[C@@H](O)[C@H](O)[C@H]1O)c1ccc2c(c1)OCO2 (some centres not stated) | 3.42 | 0.673 | 3.68 | -8.64 | -6.24
14 | Cc1ccc(S(=O)(=O)c2nnn3c2nc(NCCC(C)C)c2ccccc23)cc1C | -5.96 | -0.984 | -7.13 | -0.449 | -10.7
15 | Cn1nc2n(C)c(=O)c3ccc(C(=O)NC4CCCCC4)cc3n2c1=O | -8.82 | -5.39 | 5.93 | -13.2 | -7.31
16 | NC(=O)NCCCC(NC(=O)Cc1ccccc1)C(=O)O (configuration not stated) | 3.26 | -0.84 | 9.38 | -12.7 | 5.65
17 | CCOC(=O)c1cccc(NCC2=CC(C)(C)Oc3ccc(OC)cc32)c1 | -5.09 | -1.77 | -1.54 | -3.16 | -5.06
18 | O=C(CCn1ccc2cc(S(=O)(=O)N3CCCCC3)ccc21)N1CCC(N2CCCCC2)CC1 | 1.4 | 4.05 | -23 | -0.496 | -1.86
19 | O=C(Cn1nc2c(cc1=O)CCCC2)N1CCOCC1 | -0.824 | -0.374 | -0.021 | -4.15 | 0.483
20 | Cc1ccc(NC(=O)N2CCn3cccc3C2Cc2ccccc2)cc1 (configuration not stated) | -7.49 | 0 | -1.78 | -5.34 | -4.26

Row | Structure (SMILES) | activity change, negative = inhibition [1] [%] | activity change, negative = inhibition [2] [%] | activity change, negative = inhibition [3] [%] | activity change, negative = inhibition [4] [%] | activity change, negative = inhibition [5] [%]
21 | CC(NC(=O)CCc1nc2ccccc2c(=O)[nH]1)c1ccccc1 (configuration not stated) | -1.25 |  | -4.41 |  | 
22 | COC(=O)c1ncn2c1C(=O)N(c1ccc(F)cc1)C(C)(C(=O)NCc1ccccc1)C2 (configuration not stated) | -9.96 | 0.535 | -3.11 | -3.65 | -4.82
23 | COc1nc(-c2ccc3c(c2)OCO3)n(-c2ccc(NC(=O)CSc3ccccc3)cc2)n1 | -2.71 | -9.09 | -1.1 | -31.8 | -6.28
24 | Cc1cccc(CN2CCCn3nc(C(=O)NC(C)Cc4ccco4)cc3C2=O)c1 (configuration not stated) | 1.44 | 0 | 8.8 | -2.69 | 3.65
25 | CCCn1c(=O)c2ccc(C(=O)NC3CCCC3)cc2n2c(SCC(=O)Nc3ccc(C)cc3)nnc12 | 5.68 | 0 | 6.76 | 4.74 | 4.29
26 | C=CCn1c(=O)c2ccc(C(=O)NC(C)C)cc2n2c(=O)n(CC(=O)NCc3ccc(C)cc3)nc12 | 8.43 | 0.172 | 9.98 | 4.86 | 7.47
27 | CCCOc1ccc(C2NC(C(=O)O)Cc3c2[nH]c2ccccc32)cc1OC (configuration not stated) | -14.9 | 1.96 | 3.63 | 3.12 | -2.95
28 | CC(=O)[C@H]1CCC2C3CCC4=CC(=O)CC[C@]4(C)C3[C@H](O)C[C@@]21C (some centres not stated) |  | 4.93 |  | -10.4 | -0.023
29 | Cc1ccc(N2C(=O)c3cc(-c4ccco4)nn3CC2(C)C(=O)NC2CCCCC2)cc1 (configuration not stated) | -7.69 | 2.87 | 6.82 | 2.88 | -1.96
30 | CC(C)NC(=O)C[C@@H]1O[C@H](CNC(=O)C2CC2)[C@@H](O)[C@H]1O | -2.84 | -9.13 | -2.82 | -15.6 | -13.5
31 | COc1ccc(-c2cc3n(n2)CC(C)(C(=O)NCc2ccccc2OC)N(Cc2ccccc2F)C3=O)cc1 (configuration not stated) | -6.55 | 3.04 | -1.92 | 1.55 | -16.8
32 | O=C(Nc1ccc(-c2ccnc(Nc3ccc(N4CCOCC4)cc3)n2)cc1)C1CCCN1 (configuration not stated) | -19.1 |  | -2.47 |  | 
33 | CCCCOc1c(C(=O)c2c(F)cc(C)cc2F)cnc2n[nH]cc12 | -6.21 | -2.93 | -7.84 | -12.5 | -3.8
34 | O=C(O)c1cn(C2CC2)c2cc(N3C[C@@H]4C[C@H]3CN4)c(F)cc2c1=O | 0.178 | 0.952 | 2.98 | -6.78 | 5.92
35 | Oc1ccccc1CN1CC(CNc2cccnc2)C2(C1)CN(c1ccccc1)C2 (configuration not stated) | -10.3 | -9.62 | -32.7 | -15.9 | -14.2
36 | COc1ccc(CN[C@H]2CC(C)(C)[C@@H]3C[C@@](C)(O)CC[C@]23CCC(=O)NCc2ccco2)cc1 | -5.23 | -7.69 | -26.5 | -11.5 | -4.46
37 | Cn1nc2n(Cc3ccccc3)c(=O)c3ccc(C(=O)NC4CCCC4)cc3n2c1=O | 1.27 | 0 | 0.804 | 1.39 | 1.22
38 | COc1ccc(-c2cc(C[C@H]3CNCC[C@H]3CC(=O)N3CCN(C)CC3)no2)cc1 | -3.74 | 4.13 | 0.054 | 0.87 | 15.2
39 | COc1ccccc1OCCNC(=O)C1(C)CCCCC(=O)N1 (configuration not stated) | -3 | -1.89 | -1.38 | -4.6 | -3.58
40 | Cc1ccc(C(=O)Cn2nc3n(CCCOC(C)C)c(=O)c4ccccc4n3c2=O)c(C)c1 | 0.095 | -2.54 | 0.596 | -5.42 | -1.23

Row | Structure (SMILES) | activity change, negative = inhibition [1] [%] | activity change, negative = inhibition [2] [%] | activity change, negative = inhibition [3] [%] | activity change, negative = inhibition [4] [%] | activity change, negative = inhibition [5] [%]
41 | OCCc1cc(CC2(NCc3ccc(CO)o3)COC2)no1 | -3.72 | 2.43 | 3.27 | -1.13 | 0.149
42 | CCCn1c(=O)c2ccccc2n2c(SCC(=O)Nc3ccc(F)cc3F)nnc12 | -4.62 | 1.52 | 1.9 | -7.37 | -0.75
43 | COc1cccc(CN2CC(Oc3ccccc3C(=O)NC3CC3)C2)c1 | -2.22 | -2.15 | 0.188 | -5.24 | 2.32
44 | COC(=O)c1ncn2c1C(=O)N(Cc1ccc(OC(C)C)cc1)C(C)(C(=O)NC1CCCC1)C2 (configuration not stated) | -8.19 | -1.83 | -2.43 | -1.36 | -1.14
45 | CCOC(=O)c1cc2n(n1)CC(C)(C(=O)NCc1ccc(F)cc1)N(Cc1ccc(F)cc1)C2=O (configuration not stated) | -3.07 | -0.317 | 1.64 | -5.45 | -2.76
46 | C[C@@H]1O[C@@H](O[C@H]2CC[C@@]3(C)C(CC[C@]4(C)C3CC=C3[C@@H]5CC(C)(C)CC[C@]5(C(=O)O[C@@H]5O[C@H](CO)[C@@H](O)[C@H](O)[C@H]5O)CC[C@]34C)[C@]2(C)CO)[C@H](O)[C@H](O[C@@H]2O[C@H](CO)[C@@H](O)[C@H](O)[C@H]2O)[C@H]1O (some centres not stated) | -0.166 | 6.15 | 5.46 | -6.29 | 7.35
47 | O=C(CN1CCOCC1)NC1CCc2nnc(C3CC3)n2CC1 (configuration not stated) | -0.968 | -1.02 | 0.312 | -3.84 | -1.96
48 | O=C(COc1cccc(-c2nnc3n2CCCC3)c1)Nc1ccc(Cl)cc1F | -6.96 | -5.02 | -6.4 | -13.3 | -6.72
49 | O=C(CO)[C@@H](O)[C@H](O[C@@H]1O[C@H](CO)[C@H](O)[C@H](O)[C@H]1O)[C@H](O)CO | -0.619 | -9.36 | 6.85 | -15.9 | 0.372
50 | CCCC1(C(=O)O)CCCN(S(=O)(=O)c2ccsc2C(=O)O)C1 (configuration not stated) | -2.62 | 0.469 | -1.36 | 0.096 | 2.89
51 | COc1cccc(CNc2nc3c(S(=O)(=O)c4ccc(C)c(C)c4)nnn3c3ccccc23)c1 | -2.15 | 0 | 5.85 | 5.99 | -1.54
52 | CN1C(=O)c2cc3ccccc3n2CC1(C)C(=O)NCC(=O)NCCc1ccccc1 (configuration not stated) | -1.51 | 0 | 4.56 | -0.653 | 2.23
53 | COc1cc2nc(-c3cc(F)ccc3O)nc(N[C@@H]3CNC[C@H]3C(C)(C)O)c2cc1OC | 1.88 | 15.3 | 2.31 | -16.5 | 2.05
54 | COc1ncccc1-c1csc(CN2CCCC(C)(NC(C)=O)C2)c1 (configuration not stated) | -5.25 | -7.79 | -7.3 | -14.8 | -6.49
55 | CN1CCCC2(CCN(C(=O)CCc3ccc(Cl)cc3)C2)C1=O (configuration not stated) | -4.33 | -3.17 | -0.9 | -6.62 | -3.73
56 | O=C(COc1ccc(Cl)cc1)N1CCc2nn(CC3CC3)c(=O)n2CC1 | 0.656 | 0.973 | -0.265 | 2.95 | 13.3
57 | CCC(C)NC(=O)c1ccc2c(=O)n(CC(C)C)c3nn(Cc4cc(C)ccc4C)c(=O)n3c2c1 (configuration not stated) | -1.26 | -0.481 | 1.48 | -4.76 | -3.77
58 | O=C(c1ccc(Cl)cc1)N1CCN(c2ccc([N+](=O)[O-])c3ncccc23)CC1 | -19.8 | 5.2 | -6.01 | -10.4 | 4.91
59 | N#Cc1ccc(C(=O)NCc2nn(Cc3ccccc3)c3ccccc23)c(F)c1 | 8.93 | 0.923 | 8.64 | -5.61 | 7.13
